This is one part of the list.

This assay addresses T1, OsWOX13 (Oryza sativa, UniProt Q5QMM3 1-267).
T1 sequence: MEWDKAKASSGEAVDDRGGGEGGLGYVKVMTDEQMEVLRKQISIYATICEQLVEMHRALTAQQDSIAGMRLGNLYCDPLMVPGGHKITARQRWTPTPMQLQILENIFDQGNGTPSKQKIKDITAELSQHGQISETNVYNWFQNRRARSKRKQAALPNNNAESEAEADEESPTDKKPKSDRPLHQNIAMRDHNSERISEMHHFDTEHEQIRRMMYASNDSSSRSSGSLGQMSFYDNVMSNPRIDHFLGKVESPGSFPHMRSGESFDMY
In words: protein-binding microarray (RPBM); PBS, 2% BSA, 51.3 ng/ul salmon testes DNA, 50 uM zinc acetate, 200 nM TF, 25 C, 1 h; high values mean tight binding. The following applies: protein: recombinant; tags: N-terminal polyhistidine and DsRed monomer fusion (pET32a); label: CyDye5-dUTP incorporated in the synthesized complementary strand; 3' TTTTT single-stranded linker to array surface; dsDNA, one strand shown. The method in brief:
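For the binding signal, per-feature fluorescence intensity was read in arbitrary units on an Axon 4000B scanner. Before scanning, a 2% BSA-blocked custom Agilent array made double-stranded with Cy5-dUTP was washed after 1 h at 25 °C with 200 nM protein and 50 µM zinc acetate. The proteins were Ni–NTA-purified transcription factors with N-terminal polyhistidine and DsRed fusions, expressed in E. coli BL21-CodonPlus.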
Regarding “ATCAATTGGGTGTGACTGAGTGAGCAACAAGCTATATTCTCGGAGTCACCTAGTGCAG”, the binding signal was 3980 fluorescence intensity (a.u.).
Regarding “GAAATGTGATTACCTTGTAGTTGGACCAGTCTACTGAGTTCGGAGTCACCTAGTGCAG”, the binding signal is 25200 fluorescence intensity (a.u.).
The result for “AAAACTGTTTTATTAATTGTTGGCAGGGGAGAATACCCGTCGGAGTCACCTAGTGCAG” reads 8240 fluorescence intensity (a.u.).
The same measure for “TTAAATGCCATTTATTAAATGAGCGATGGTTGGAACGGCGCGGAGTCACCTAGTGCAG”: 3810 fluorescence intensity (a.u.); for “AAACTGTAATTTACTCAATTTATTACTTCTACAAACGGACCGGAGTCACCTAGTGCAG”: 27700 fluorescence intensity (a.u.); for “CCCTAACATGGAAAAGACTAGATGGAAGACTGACTATGCACGGAGTCACCTAGTGCAG”: 5070 fluorescence intensity (a.u.).
As for “GATGGTTCATAATTAACAGACTCAGTCCCATGATAGTATACGGAGTCACCTAGTGCAG”, the binding signal was 6380 fluorescence intensity (a.u.).
The same measure for “AATGATAGGTGACATCTTTGCCACCAGCTTACCACCACCACGGAGTCACCTAGTGCAG”: 3880 fluorescence intensity (a.u.); for “CAAAATTGGCCTGTTCAGTTTCCTCGTAGCTAAACTCTTGCGGAGTCACCTAGTGCAG”: 11200 fluorescence intensity (a.u.).
Take “GTATTAATCATGTTTTATCATCTAACAACAACGAAAATACCGGAGTCACCTAGTGCAG”: the binding signal is 7970 fluorescence intensity (a.u.).
The result for “TATCCTGTAATTGACTAAAGAAGCTGCGTCTTGCATGACACGGAGTCACCTAGTGCAG” reads 29000 fluorescence intensity (a.u.).
The result for “ACTTCCAATTAGGAGTCTGCATCATCCCAGGCAGCAGGGCCGGAGTCACCTAGTGCAG” reads 3670 fluorescence intensity (a.u.); that for “AATAAATTTAGTGACAGAATTATGGCGTCTAATCTGCAAACGGAGTCACCTAGTGCAG”, 13600 fluorescence intensity (a.u.).
The result for “ATAAATTGTGATAATTTGATCAAAGTATATATAGTTTTGTCGGAGTCACCTAGTGCAG” reads 28600 fluorescence intensity (a.u.); that for “AGAAAACTGACAAATCGTTTACTCGACTTGACTCGAACTTCGGAGTCACCTAGTGCAG”, 5930 fluorescence intensity (a.u.); that for “CCTAATTGTGTTTCTATATGGACTCTATACTCTACTTCTACGGAGTCACCTAGTGCAG”, 24300 fluorescence intensity (a.u.).
“TAAATAATTAATTAAAGATAAGGCAAGAAATTAATCCAAACGGAGTCACCTAGTGCAG”: the binding signal was 7760 fluorescence intensity (a.u.).
The same measure for “CAAATCATCAAATTTAACCGTTTCAGTGTAGATCAAGGAACGGAGTCACCTAGTGCAG”: 5330 fluorescence intensity (a.u.); for “CTTGCCTCAATTATCATTAACAACTGCTAAATATTGGCACCGGAGTCACCTAGTGCAG”: 9290 fluorescence intensity (a.u.); for “CATGTCGTCGTCGTGGTGGTGGTGGTGGTGGTGGGGCGGGCGGAGTCACCTAGTGCAG”: 7730 fluorescence intensity (a.u.).
The result for “ACCAGATTCACCGTGATTAGTCTCACACTTAATAAATCGACGGAGTCACCTAGTGCAG” reads 4900 fluorescence intensity (a.u.).
The same measure for “TGTAATAGTGGGTTAATTAATTAGCTTGCCAGCTTCAGGGCGGAGTCACCTAGTGCAG”: 21900 fluorescence intensity (a.u.); for “ATCAAATCAATAATTAAATATATTTTCATAATAAATTTGTCGGAGTCACCTAGTGCAG”: 20400 fluorescence intensity (a.u.).
In the case of “TCATCAATCATCATCCCTTCTTCACTCTCCCTCGGCAACTCGGAGTCACCTAGTGCAG”, the binding signal was 28400 fluorescence intensity (a.u.).
Consider “TATATATATATATATATATATAGTTTTAGATATTTCACAACGGAGTCACCTAGTGCAG”, for which the binding signal was 20500 fluorescence intensity (a.u.).
The result for “TCTTGTAATTATTCTATGTTTAATACTCTAAATTAGCATCCGGAGTCACCTAGTGCAG” reads 20000 fluorescence intensity (a.u.).
For “TTAATTTCAATTTAAAACTACACCATACTTGCTTTGTTTGCGGAGTCACCTAGTGCAG”, the binding signal is 27700 fluorescence intensity (a.u.).
The same measure for “CCTGAGATATTGATTACTACTCTTGTCGTCCGGGACCGATCGGAGTCACCTAGTGCAG”: 11000 fluorescence intensity (a.u.); for “CAAAATAATTTTGCTGTTAAGTTGAGGTACCCTCTGGTGACGGAGTCACCTAGTGCAG”: 5740 fluorescence intensity (a.u.).
On to “ATATATTTAATATATTTAATTTACCTATGTATTTAAATAGCGGAGTCACCTAGTGCAG”, for which the binding signal is 4660 fluorescence intensity (a.u.).
The result for “AAATTGATTAGATTTACAGCTAACGGTTACTGTACATTGACGGAGTCACCTAGTGCAG” reads 34700 fluorescence intensity (a.u.); that for “AAAGTTGACAGAGACGTCCTCTCTACTGTTCTGTGACCGTCGGAGTCACCTAGTGCAG”, 15300 fluorescence intensity (a.u.).
Turning to “AGCGATTGGCTTAATTTCAAGTTAGTCTAAACCAAAAGATCGGAGTCACCTAGTGCAG”, the binding signal is 15300 fluorescence intensity (a.u.).
Consider “CCTTATGTGACACTATATTAATTAAGAGAGAGAGTGAAGACGGAGTCACCTAGTGCAG”, for which the binding signal is 4280 fluorescence intensity (a.u.).
The same measure for “CATTAATTCTAATCGACGGAGAGGAATTGGAAACGAAAATCGGAGTCACCTAGTGCAG”: 3760 fluorescence intensity (a.u.).
The result for “ATTTCGGTTGAAATTGAAGATGATGTGACTGAAAAGTTGTCGGAGTCACCTAGTGCAG” reads 5390 fluorescence intensity (a.u.); that for “TGTGATTAGTTCTAATTTAATATAGCAAGAACTAGTGGATCGGAGTCACCTAGTGCAG”, 53800 fluorescence intensity (a.u.); that for “CATATGCAGACTCCAATTAATAAACATAAATTTGTCAGATCGGAGTCACCTAGTGCAG”, 7780 fluorescence intensity (a.u.).
The result for “AGTAGTAGAATTGATTAGTTTAAGCTGCAGGTTAATTAGCCGGAGTCACCTAGTGCAG” reads 19000 fluorescence intensity (a.u.).
For the sequence “ATGTATTTGCAAATTGGAATTCTCTGTGCAACCTCGCAAGCGGAGTCACCTAGTGCAG”, the binding signal is 3380 fluorescence intensity (a.u.).
The result for “ACTTTGATGGCATTTTCAATCTTACCAAATTTTGATACAGCGGAGTCACCTAGTGCAG” reads 10500 fluorescence intensity (a.u.); that for “GCTGAAATTATCTCGGTCATGGTAGGTCGATTGATGGGACCGGAGTCACCTAGTGCAG”, 10000 fluorescence intensity (a.u.).
